Results taken from patent US20120107330A1 (published 2012).
Blank lines part the entries; values can stand above or below the binder they belong to.

Key:
[1] = target: T1, human TNFR1 on MRC-5 cells (human, UniProt P19438 30-455); assay: cell-based or functional assay
T1 sequence (looked up): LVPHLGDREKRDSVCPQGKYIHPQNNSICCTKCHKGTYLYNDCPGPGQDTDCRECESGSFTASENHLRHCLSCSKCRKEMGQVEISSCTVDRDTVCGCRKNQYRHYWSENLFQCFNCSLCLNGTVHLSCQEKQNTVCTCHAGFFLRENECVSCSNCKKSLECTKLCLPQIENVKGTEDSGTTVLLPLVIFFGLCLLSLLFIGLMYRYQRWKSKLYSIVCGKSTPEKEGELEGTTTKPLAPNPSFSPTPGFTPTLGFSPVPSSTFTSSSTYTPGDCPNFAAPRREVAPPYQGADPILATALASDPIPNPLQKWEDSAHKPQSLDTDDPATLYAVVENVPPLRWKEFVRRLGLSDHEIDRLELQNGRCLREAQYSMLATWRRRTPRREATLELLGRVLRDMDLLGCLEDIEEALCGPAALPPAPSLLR

[2] = target: T2, mouse TNFR1 on L929 cells (mouse, UniProt P25118 30-454); assay: cell-based or functional assay
T2 sequence (looked up): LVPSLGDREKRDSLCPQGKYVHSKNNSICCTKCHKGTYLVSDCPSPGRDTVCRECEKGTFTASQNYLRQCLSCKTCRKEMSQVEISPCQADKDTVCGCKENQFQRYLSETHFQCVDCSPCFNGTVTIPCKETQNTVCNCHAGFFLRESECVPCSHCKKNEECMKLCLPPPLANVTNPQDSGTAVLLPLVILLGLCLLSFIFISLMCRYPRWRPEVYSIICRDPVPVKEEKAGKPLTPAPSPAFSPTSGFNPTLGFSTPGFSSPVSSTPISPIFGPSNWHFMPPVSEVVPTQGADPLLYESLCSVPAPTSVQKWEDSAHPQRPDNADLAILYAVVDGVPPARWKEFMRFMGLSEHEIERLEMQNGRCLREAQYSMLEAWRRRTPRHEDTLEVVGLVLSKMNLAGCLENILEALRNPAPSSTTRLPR

[3] = target: T3, Cynomologus monkey TNFR1 on CYNOM-K1 cells (Cynomolgus monkey, UniProt Q2PFV5 30-455); assay: cell-based or functional assay
T3 sequence: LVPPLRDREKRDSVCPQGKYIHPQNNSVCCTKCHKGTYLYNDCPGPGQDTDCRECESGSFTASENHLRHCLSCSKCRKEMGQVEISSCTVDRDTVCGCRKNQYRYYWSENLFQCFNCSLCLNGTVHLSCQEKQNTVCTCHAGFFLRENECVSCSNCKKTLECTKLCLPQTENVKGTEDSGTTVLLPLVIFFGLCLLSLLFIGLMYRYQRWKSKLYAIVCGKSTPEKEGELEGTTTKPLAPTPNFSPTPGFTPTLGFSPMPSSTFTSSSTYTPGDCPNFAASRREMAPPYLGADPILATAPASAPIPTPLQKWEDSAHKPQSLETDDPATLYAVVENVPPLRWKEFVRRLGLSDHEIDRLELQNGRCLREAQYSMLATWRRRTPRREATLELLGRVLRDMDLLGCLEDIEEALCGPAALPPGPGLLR

[4] = target: T4, human TNFR1 (recombinant, R&D Systems cat no. 636-R1/CF, biotinylated) (human, UniProt P19438 30-211, limits assumed, biotinylated with EZ-Link NHS-LC-LC-biotin); assay: BIAcore, human TNFR1 on SA chip
T4 construct: it is not tied to the BIAcore reagent; also called p55; hTNFR1
T4 sequence (looked up): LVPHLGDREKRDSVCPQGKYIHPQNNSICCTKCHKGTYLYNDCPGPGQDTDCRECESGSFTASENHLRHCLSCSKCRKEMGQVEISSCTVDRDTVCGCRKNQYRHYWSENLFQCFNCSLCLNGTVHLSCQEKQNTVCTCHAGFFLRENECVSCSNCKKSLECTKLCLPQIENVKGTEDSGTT
From the text: (§1) BIAcore was done to determine the association and dissociation rates of the different dAbs and in that way establish their binding affinity for both human and mouse TNFR1. Experiments were done using biotinylated TNFR1 (R&D Systems), of the respective species, coupled to streptavidin-coated BIAcore chips followed by injection of a concentration range of the dAbs.

[5] = target: T5, mouse TNFR1 (recombinant, R&D Systems cat no. 425-R1-050/CF, biotinylated) (mouse, UniProt P25118 22-212, biotinylated with EZ-Link NHS-LC-LC-biotin); assay: BIAcore, mouse TNFR1 on SA chip
T5 construct: also called murine TNFR1; biotinylated mouse TNFR1
T5 sequence (looked up): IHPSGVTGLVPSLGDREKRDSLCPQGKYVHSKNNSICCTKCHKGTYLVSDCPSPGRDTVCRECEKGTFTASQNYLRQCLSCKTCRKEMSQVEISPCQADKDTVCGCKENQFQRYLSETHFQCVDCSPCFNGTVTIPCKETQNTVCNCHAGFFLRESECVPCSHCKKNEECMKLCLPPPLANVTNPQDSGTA
From the text: as §1

[6] = target: T1, human TNFR1 on MRC-5 cells; assay: cell-based or functional assay; remark: listed apart in the source
[7] = target: T2, mouse TNFR1 on L929 cells; assay: cell-based or functional assay; remark: listed apart in the source
[8] = target: T4, human TNFR1 (recombinant, R&D Systems …); assay: BIAcore, TNFR1 (species not given, taken as human)

Human MRC5 ND50 [1]: 1.9 nM
Mouse L929 ND50 [2]: 35 nM
Cynomologus CYNOM-K1 ND50 [3]: 1.2 nM
Kd [4]: 0.21 nM
koff [4]: 7.9e-05 s⁻¹
kon [4]: 380000 M⁻¹ s⁻¹
Kd [5]: 4.4 nM
koff [5]: 0.00068 s⁻¹
kon [5]: 160000 M⁻¹ s⁻¹
B1: DOM1h-574-126 (other)
VH: EVQLLESGGGLVQPGGSLRLSCAASGFTFVKYSMGWVRQAPGKGLEWVSQIANTGDRRYYAH[here about 20 residues without letters]MNSLRAEDTAVYYCAIYTGRWEPFVYWGQGTLVTVSS
notes: VH dAb

Human MRC5 ND50 [1]: 1.9 nM
Mouse L929 ND50 [2]: 34 nM
Kd [4]: 0.15 nM
koff [4]: 4.1e-05 s⁻¹
kon [4]: 270000 M⁻¹ s⁻¹
Kd [5]: 2.7 nM
koff [5]: 0.00032 s⁻¹
kon [5]: 120000 M⁻¹ s⁻¹
B2: DOM1h-574-180 (other)
VH: EVQLLESGGGLVQPGGSLRLSCAASGFTFVKYSMGWVRQAPGKGLEWVSQISDTADRTYYAH[here about 20 residues without letters]MNSLRAEDTAVYYCAIYTGRWVPFEYWGQGTLVTVSS
notes: VH dAb

MRC5 ND50 [6]: 1.97 nM
L929 ND50 [7]: 5.4 nM
Kd [8]: 0.3 nM
koff [8]: 5.5e-05 s⁻¹
kon [8]: 190000 M⁻¹ s⁻¹
B3: DMS0136 (bispecific antibody)
chain: EVQLLESGGGLVQPGGSLRLSCAASGFTFVKYSMGWVRQAPGKGLEWVSQISDTADRTYYAH[here about 20 residues without letters]MNSLRAEDTAVYYCAIYTGRWVPFEYWGQGTLVTVSSASTDIQMTQSPSSLSASVGDRVTITCRASRPIGTTLSWYQQKPGKAPKLLILWNSRLQSGVPSRFSGSGSGTDFTLTISSLQPEDFATYYCAQAGTHPTTFGQGTKVEIKR
notes: anti-TNFR1 dAb / AlbudAb in-line fusion
